Hit rate of the full screen: of about 48,000 compounds, about 1,200 (2.5%) were called active. Inconclusive results (about 2%) are left out.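 How the source made its calls: active means activation of at least 60% and not above a set upper limit (about 1 call in 100 departs from these limits); inconclusive means activation of 40% to 60%, or above that upper limit; inactive means activation under 40%.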 Some of the results follow.

The values below come from PubChem BioAssay AID1346428 (National Center for Advancing Translational Sciences (NCATS), 2018).

Chain of UniProt O75388 (O75388 whole entry, looked up): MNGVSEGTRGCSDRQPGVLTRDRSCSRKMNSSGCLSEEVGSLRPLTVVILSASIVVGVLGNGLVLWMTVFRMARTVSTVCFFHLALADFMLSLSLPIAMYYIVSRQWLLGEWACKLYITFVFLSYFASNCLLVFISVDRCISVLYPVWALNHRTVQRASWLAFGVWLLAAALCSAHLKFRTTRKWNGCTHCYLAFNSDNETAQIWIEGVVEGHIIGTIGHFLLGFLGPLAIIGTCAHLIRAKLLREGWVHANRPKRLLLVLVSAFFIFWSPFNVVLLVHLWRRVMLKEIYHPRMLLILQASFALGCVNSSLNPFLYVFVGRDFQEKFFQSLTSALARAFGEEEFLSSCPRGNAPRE

This assay concerns the target Probable G-protein coupled receptor 32 (Homo sapiens) (UniProt O75388). As to the kind of experiment: qHTS for Agonists of Human Resolvin D1 Receptor DRV1. Further: 0% is about no effect. The following applies: CHO-K1 GPR32 beta-arrestin PathHunter luminescence, 90 min; at 76.9 µM; hits give high values; zero percent set by DMSO-only wells. Put shortly:
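CHO-K1 cells stably expressing ProLink-tagged GPR32 and Enzyme Activator-tagged beta-arrestin were seeded at 2,500 cells/well overnight, exposed to compounds for 90 min at 37 °C, then read by beta-Gal complementation chemiluminescence after 1 h detection reagent.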
A general note: Quantitative high-throughput screening tests each substance at several concentrations.
Consider `COc1ccc(OC)c(CNC(=O)c2cc3cc4ccc(OC)cc4nc3o2)c1`, for which the activation is inactive: -4.65%. For `Cc1cc(-n2c(C)nc3ccccc3c2=O)ccc1NC(=O)c1ccc(C)c([N+](=O)[O-])c1` the value was inactive: 11%. For `Cc1ccc(C(=O)/C=C/c2cn(CC(O)CN3CCc4ccccc43)c3ccccc23)cc1` (centres undefined) the value was inactive: -39.1%; for `Cc1ccc(O)c(NC(=O)c2noc3c2CCCCC3)c1`, inactive: -13.9%.

For the compound `COc1cccc(-n2cc(C(=O)Oc3cccc(C(F)(F)F)c3)c3ccccc3c2=O)c1`, the activation was inactive: -4.75%. Consider `O=C(CC1C(=O)N(c2ccc(F)cc2)C(=O)N1Cc1ccc2c(c1)OCO2)Nc1ccc(F)cc1` (centres undefined), for which the activation was inactive: 0.707%. As for `CC(=O)N1c2ccccc2CC1C(=O)N1CCN(c2cccc(Cl)c2)CC1` (centres undefined), the figure is inactive: -4.89%. As for `COc1cccc(CNC(=O)CN2C(=O)CCCc3ccccc32)c1OC`, the figure is inactive: -1.43%; as for `CCOc1ccc(OCC)c(NC(=O)C(NS(=O)(=O)c2ccc(Br)s2)c2ccccc2)c1` (centres undefined), active: 84.9%; as for `CCN(c1ncnc2c1cnn2-c1cc(Cl)ccc1C)C1CCCCC1`, inactive: -3.25%. As for `Cc1ccc(C)c(CN2C(=O)c3ccccc3S(=O)(=O)c3ccc(C(=O)N4CCCC4)cc32)c1`, the figure is inactive: -20.9%; as for `CCc1ccc(NC(=O)c2ccc3oc(=O)n(Cc4ccccc4)c3c2)cc1`, inactive: -0.249%; as for `CCOC(=O)c1cnc2c(C)cccc2c1NCCc1ccc(OC)c(OC)c1`, inactive: -19.8%. As to `Nc1c(-c2nc(-c3cccs3)no2)nnn1-c1cccc(F)c1`, the activation was inactive: 0.0772%. As for `CC(=O)NCCNc1nc2c(-c3ccc(C)cc3)nnn2c2ccccc12`, the activation is inactive: -4.31%. As for `CCOC(=O)CSc1nc2c(sc3ccccc32)c(=O)n1Cc1ccc(C)cc1`, the figure is inactive: 7.24%; as for `CCc1sc(Nc2ccc(C)cc2Br)nc1-c1cc2cccc(OC)c2oc1=O`, inactive: -10.8%; as for `CNC(=O)C1CCN(Cc2cc3ccccc3n2Cc2ccccc2C)CC1`, inactive: -15.3%. On to `CCCN(CCC)C(=O)Cn1c(=O)n(-c2ccc(C)cc2)c(=O)c2ccc(C(=O)NCc3ccccc3Cl)cc21`, for which the activation is inactive: -17.9%. In the case of `Cc1ccc(-c2cn3c(n2)sc2cc(C(=O)NCc4cccs4)ccc23)cc1`, the activation was inactive: -18.9%. As for `O=C(CCc1nnc2n(Cc3ccccc3Cl)c(=O)c3ccccc3n12)Nc1ccc(F)c(F)c1`, the activation is inactive: 1.56%. As for `Cc1ccc(-n2nc(CO)c(C(=O)NCC(c3ccccc3)c3ccccc3)n2)cc1`, the figure is inactive: -6.17%; as for `O=C(NCc1cccc(Br)c1)C1CCN(C(=O)c2sccc2-n2cccc2)CC1`, inactive: -18.9%. As for `CCOCCCNC(=O)CCC(=O)NNc1nc2ccccc2c2nc(-c3ccccc3)nn12`, the figure is inactive: -21.3%. For `Cc1oc(-c2ccccc2)nc1CSc1nnc(C)n2c1cc1sccc12` the value was inactive: -21.7%.

Consider `CCCCNC(=O)Cn1c(=O)cc(C)c2c(C)nn(-c3ccc(CC)cc3)c21`, for which the activation was inactive: 3.22%. As for `CCC1CN(C(=O)N2CCC(C(=O)NCCc3ccc(C)cc3)CC2)c2ccccc2O1` (centres undefined), the figure is inactive: -12.4%. Turning to `COc1cc(Cl)c(C)cc1Nc1nc2ccccc2nc1NS(=O)(=O)c1ccccc1`, the activation is inactive: 26.2%.

In the case of `COc1ccccc1N1CCN(C(=O)c2cnn(-c3ccc(C)c(C)c3)c2C2CCN(C(=O)OC(C)(C)C)CC2)CC1`, the activation is inactive: -13.7%. As for `Cc1ccc(N2CCN(C(=O)NCc3noc4ccccc34)CC2C)cc1` (centres undefined), the figure is inactive: -18.8%. For `Cc1cccc(C(=O)Nc2ccc(-c3nc4cc(C(C)C)ccc4o3)cc2)c1` the value was inactive: 19.3%; for `COc1ccc(S(=O)(=O)n2nc(C)c(S(=O)(=O)N3CCCCCC3)c2C)cc1OC`, inactive: 4.63%; for `CCOC(=O)c1ccc(NC(=O)C2CCN(C(=O)N3CC(C)Oc4ccc(C)cc43)CC2)cc1` (centres undefined), inactive: -6.29%. As for `CCOC(=O)c1c(C)oc2ncnc(NCCCN3CCN(c4cc(C)ccc4C)CC3)c12`, the figure is inactive: -3.7%; as for `COc1ccc(-c2c3c(nc4sc(C(=O)Nc5ccc(F)cc5)c(N)c24)CC(C)(C)CC3=O)cc1`, inactive: 6.81%.

On to `CCCOc1ccc(C(=O)N(Cc2cccs2)c2ccc(C)cc2)cc1`, for which the activation was inactive: 17.4%. As for `COc1ccc(Cl)cc1S(=O)(=O)N1CCN(Cc2cccc(F)c2)CC1`, the activation is inactive: 16%. For `Cc1ccccc1-c1nc(C(N)=O)c2c(n1)n(-c1ccc3c(c1)OCO3)c(=O)n2C` the value was inactive: -3.19%; for `Nc1ccncc1N`, inactive: -2.51%. `CC(=O)c1cccc(NC(=O)CSc2nnc3ccc(-c4ccc(C)cc4)nn23)c1`: the activation is inactive: -5.87%.

Turning to `O=S(=O)(NCCc1csc2nc(-c3ccc(Cl)cc3)nn12)c1ccc(Oc2ccccc2)cc1`, the activation is inactive: 25.9%. As for `Cc1cc2nc(-c3ccc(Cl)cc3)cc(C(F)(F)F)n2n1`, the figure is inactive: -2.71%; as for `O=C(NCc1ccco1)C1CCN(C(=O)N2CCOc3ccc(Cl)cc32)CC1`, inactive: -2.03%; as for `CN(C)S(=O)(=O)c1ccc2c(c1)N(CC(=O)NCc1cccc(Br)c1)C(=O)CS2`, inactive: 0%.

For `COc1ccccc1-c1nnc2n(CCc3ccccc3)c(=O)c3ccccc3n12`, the activation was inactive: -0.614%. For `O=C1CC(c2nnc(Cc3ccc(Cl)cc3)o2)CN1c1ccccc1` (centres undefined) the value was inactive: -4.81%; for `CCn1c(=N)c(C(=O)NC2CCCCC2)cc2c(=O)n3cccc(C)c3nc21`, inactive: -1.55%; for `O=c1cc2nc(-c3cccs3)nc(SCCOc3ccc(Cl)cc3)n2[nH]1`, inactive: -0.85%. As for `Cc1ccc(-c2nnc(NC(=O)c3ccc4c(c3)OCCO4)o2)c(C)c1`, the figure is inactive: -5.75%. Consider `Cc1cc2c(cc1S(=O)(=O)CCC(=O)NC1CCC(C)CC1)OCC(=O)N2` (centres undefined), for which the activation was inactive: -10%. For `Cc1ccc(C)c(Cn2c(=O)n(Cc3ccc(C(=O)NC4CCN(Cc5ccccc5)CC4)cc3)c(=O)c3ccccc32)c1` the value was inactive: -9.01%; for `CC(CCc1ccccc1)NC(=O)CSc1n[nH]c(-c2ccccc2Cl)n1` (centres undefined), inactive: -0.947%.

Consider `O=C(O)C(=O)Nc1cccc(-c2nn[nH]n2)c1`, for which the activation is inactive: -38.8%.

Consider `COc1cccc(N2CC(NC(=O)c3cccs3)CC2=O)c1` (centres undefined), for which the activation was inactive: -10.8%. With `Cc1cc(C)c(NC(=O)C(C)n2nc(C)c3sc4ccccc4c3c2=O)c(C)c1` (centres undefined), the activation was inactive: -17.3%.

On to `COc1cccc(CNC(=O)CCc2c(C)nn(-c3ccc(N4CCCC4)nn3)c2C)c1`, for which the activation is inactive: -9.68%. For `Cc1cc(Cl)ccc1NC(=O)C1CCCN(c2nnc(C)c3c(C)n(-c4ccccc4)nc23)C1` (centres undefined) the value was inactive: 5.05%. For `O=S(=O)(NCC(c1ccco1)S(=O)(=O)c1cccs1)c1ccccc1` (centres undefined) the value was inactive: -20.7%; for `Cc1ccc(OC(C)C(=O)N2CCN(CCc3ccccn3)CC2)cc1C` (centres undefined), inactive: -3.79%; for `Cc1cc(F)ccc1NC(=O)C1CCCN(C(=O)c2cnn(-c3ccccc3)c2-n2cccc2)C1` (centres undefined), inactive: -37.6%. For `COc1ccc(OC(=O)c2cn(-c3cccc(OC)c3)c(=O)c3ccccc23)cc1` the value was inactive: -14.8%; for `Cc1cccc(OCC(=O)Nc2ccc3nc(SCc4ccccc4)sc3c2)c1`, inactive: -5.65%; for `Cc1nc2ccccc2n1CCc1nc2c3ccccc3nc(SCc3ccccc3F)n2n1`, inactive: -4.43%. With `CCCc1nnc(NC(=O)CSc2nnc3c4ccccc4n(CC)c3n2)s1`, the activation was inactive: 1.94%. As for `CCc1ccc(CNC(=O)c2ccc(Cn3c(=O)c4cccn4c4cccnc43)cc2)cc1`, the activation is inactive: -8.09%.

Consider `COCCn1c(C)cc(O)c(C(c2cccc(F)c2)N2CCN(c3ccccc3)CC2)c1=O` (centres undefined), for which the activation is inactive: -13.5%.

For the compound `CCc1cccc(C)c1NC(=O)c1cc(CN2CCCC2)on1`, the activation is inactive: -6.14%. As for `CC(C)NC(=O)C1CCCN(S(=O)(=O)c2ccc3c(ccn3C)c2)C1` (centres undefined), the figure is inactive: -16.8%.

Take `Cc1ccc(OCCCC(=O)Nc2sc3c(c2C(N)=O)CCC(C)C3)cc1` (centres undefined): the activation is inactive: 12.4%.

For the compound `CCOc1ccc(C(=O)N2CC(=O)Nc3ccc(F)cc3C2c2ccc(F)cc2)cc1` (centres undefined), the activation was inactive: -13.2%. For `COc1ccc(N(CC(=O)N2CCN(c3cccc(Cl)c3)CC2)S(=O)(=O)c2c(C)noc2C)cc1` the value was inactive: -14.9%. As for `COc1ccc(-c2oc3ncn4nc(COc5ccc(Cl)cc5)nc4c3c2-c2ccc(OC)cc2)cc1`, the figure is inactive: -10.7%. As for `CCc1nnc2c(Nc3cc(OC)c(Cl)cc3OC)nc3ccccc3n12`, the activation was inactive: -3.96%.

As for `COc1cc(C(=O)N2CCCCCCC2)cc(OC)c1OC`, the activation is inactive: -4.03%.

As for `O=C(Nc1ccc2oc(-c3cccc4c(Br)cccc34)nc2c1)c1cccc(Cl)c1`, the activation was inactive: -6.08%. For `CCOC(=O)N1CCc2c(sc3c2c(=O)n(CCc2ccccc2)c(=O)n3CC(=O)Nc2ccccc2C)C1` the value was inactive: -2.81%. As for `COc1ccc(S(=O)(=O)N(CCc2ccccc2)CC(=O)Nc2cc(Cl)ccc2C)cc1`, the figure is inactive: -3.26%. For `CCCSc1nnc(NC(=O)c2cc(=O)c3ccccc3o2)s1` the value was inactive: 3.82%; for `O=C(c1cccc(Cl)c1)N(Cc1cccc(F)c1)C1CCS(=O)(=O)C1` (centres undefined), inactive: -5.81%. For the compound `NC(=O)c1c(NC(=O)CS(=O)(=O)c2ccc(Cl)cc2)sc2c1CCCC2`, the activation is inactive: -1.81%. For `C=CCN1CCc2c(cc(O)c(O)c2Cl)C(c2ccccc2)C1` (centres undefined) the value was inactive: -4.1%. For `CCCN1CCN(CCCNC(=O)c2cc3c(s2)-c2c(C)cccc2OC3)CC1` the value was inactive: -6%; for `COC(=O)c1cc2sccc2n1Cc1c(C)cc(C)cc1C`, inactive: -4.24%. For `COc1ccc(NC(=O)C2CCCN(S(=O)(=O)c3ccc4[nH]c(=O)ccc4c3)C2)cc1Cl` (centres undefined) the value was inactive: 8.74%.
